# PubChem BioAssay (NCATS)
# This list was built around the results that the source calls inconclusive (neither active nor inactive); the mix of calls is not that of the screen. For some assays here: Potencies beside an inconclusive call are fits to weak or partial responses and may not hold up. Activity calls are given as the source filed them. Calls follow the shape of the dose curve; as a rule, active = well fitted curve in the direction sought with a large enough effect; inconclusive = small, poorly fitted or top-dose-only effect, or another doubt; inactive = no such curve, though single readings can be large; an effect the other way counts as inactive or inconclusive.
# What was measured:
# Es-2 = assay: Primary qHTS to identify gynecologic anti-cancer compounds using libraries of approved drugs and bioactive compounds (AID 1345084); settings: Gynecologic cancer cell panel viability, ATPlite luminescence, 48 h; series mostly up to 57.5 µM; also: nearly all actives have a fitted effect of over 55% in size
# Summary of the method: (§1)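 48 h compound exposure at 37 C, 5% CO2; five-point qHTS. ATPlite luminescence readout of cell ATP.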
# Hek293T = assay: as above; settings: Gynecologic cancer cell panel viability, ATPlite luminescence, 48 h, control line for the selectivity index; series mostly up to 57.5 µM
# Summary of the method: as §1
# OV90 = assay: as above; settings: Gynecologic cancer cell panel viability, ATPlite luminescence, 48 h; series mostly up to 57.5 µM
# Summary of the method: as §1
# CASKI = assay: as above; settings: Gynecologic cancer cell panel viability, ATPlite luminescence, 48 h; series mostly up to 57.5 µM
# Summary of the method: as §1
# HeLa = assay: as above; settings: Gynecologic cancer cell panel viability, ATPlite luminescence, 48 h; series mostly up to 57.5 µM
# Summary of the method: as §1
# PC49 = assay: qHTS profiling for inhibitors of Plasmodium falciparum proliferation (AID 504749); also: nearly all actives have a fitted effect of over 60% in size; settings: P. falciparum in erythrocytes, SYBR Green DNA, 72 h; series mostly up to 28.7 µM
# Summary of the method: (§2)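 P. falciparum-infected erythrocytes (0.3% parasitemia, 2.5% hematocrit final) were exposed to compounds for 72 h at 37 C in 5% CO2, then lysed with SYBR Green buffer overnight at room temperature; parasite DNA fluorescence was normalized to artemisinin and DMSO controls.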
# SC27B = assay: as above; settings: P. falciparum in erythrocytes, SYBR Green DNA, 72 h; series mostly up to 28.7 µM
# Summary of the method: as §2
# TAB109 = assay: as above; settings: P. falciparum in erythrocytes, SYBR Green DNA, 72 h; series mostly up to 28.7 µM
# Summary of the method: as §2
# TAB113 = assay: as above; settings: P. falciparum in erythrocytes, SYBR Green DNA, 72 h; series mostly up to 28.7 µM
# Summary of the method: as §2
# TAB165 = assay: as above; settings: P. falciparum in erythrocytes, SYBR Green DNA, 72 h; series mostly up to 28.7 µM
# Summary of the method: as §2
# JEG-3 = assay: Primary qHTS to identify gynecologic anti-cancer compounds using libraries of approved drugs and bioactive compounds (AID 1345084); settings: Gynecologic cancer cell panel viability, ATPlite luminescence, 48 h; series mostly up to 57.5 µM; also: nearly all actives have a fitted effect of over 55% in size
# Summary of the method: as §1
# Potency is read from the fitted curve at half-maximal effect; tags tell the direction and shape of the fitted curve.
structure (smiles),measurement,setting,value
C=C(CO)C(=O)O[C@H]1CC(=C)[C@@H]2C[C@H](O)C(=C)[C@@H]2[C@H]2OC(=O)C(=C)[C@@H]21,Potency,Es-2,"inconclusive: 22.4 µM [cytotoxic, single point]"
CC1=CC(=O)[C@@H](O)[C@]2(C)C3[C@@H](O)[C@@H]4OC(=O)[C@@H]([C@H]4C)[C@]3(C)C(=O)[C@H](O)[C@@H]12 (some centres not stated),Potency,Es-2,"inconclusive: 28.2 µM [cytotoxic, partial curve, poor fit]"
same,Potency,Hek293T,"inconclusive: 10 µM [cytotoxic, partial curve, poor fit]"
same,Potency,OV90,inactive
CC1=C2[C@H]3OC(=O)[C@@H](C)[C@@H]3CC[C@@]2(C)C=CC1=O,Potency,CASKI,inactive
Cc1cccc(NC(=O)N[C@@H]2N=C(c3ccccc3)c3ccccc3N(C)C2=O)c1,Potency,CASKI,inactive
same,Potency,HeLa,inactive
CC(C)(C)NCC(O)c1ccccc1Cl (configuration not stated),Potency,PC49,active: 12.6 µM
same,Potency,SC27B,"inconclusive: 10 µM [inhibitor, single point]"
same,Potency,TAB109,"inconclusive: 7.08 µM [inhibitor, partial curve]"
same,Potency,TAB113,"inconclusive: 17.8 µM [inhibitor, single point]"
same,Potency,TAB165,"inconclusive: 10 µM [inhibitor, single point]"
same,Potency,Es-2,inactive
same,Potency,HeLa,inactive
same,Potency,OV90,"inconclusive: 3.16 µM [rising, partial curve, poor fit]"
C[C@@]1(CO)[C@H](O)CC[C@@]2(C)[C@H]1CC[C@H]1C[C@@H]3C[C@@]12CC[C@]3(O)CO,Potency,Es-2,"inconclusive: 3.98 µM [cytotoxic, full curve]"
same,Potency,JEG-3,inactive
